Assay results taken from article PMC3723532.
These are yes or no findings as the source states them, for the method shown.

Amino acid sequences for entries named in this document (tags omitted).
UniProt Q9FIP9: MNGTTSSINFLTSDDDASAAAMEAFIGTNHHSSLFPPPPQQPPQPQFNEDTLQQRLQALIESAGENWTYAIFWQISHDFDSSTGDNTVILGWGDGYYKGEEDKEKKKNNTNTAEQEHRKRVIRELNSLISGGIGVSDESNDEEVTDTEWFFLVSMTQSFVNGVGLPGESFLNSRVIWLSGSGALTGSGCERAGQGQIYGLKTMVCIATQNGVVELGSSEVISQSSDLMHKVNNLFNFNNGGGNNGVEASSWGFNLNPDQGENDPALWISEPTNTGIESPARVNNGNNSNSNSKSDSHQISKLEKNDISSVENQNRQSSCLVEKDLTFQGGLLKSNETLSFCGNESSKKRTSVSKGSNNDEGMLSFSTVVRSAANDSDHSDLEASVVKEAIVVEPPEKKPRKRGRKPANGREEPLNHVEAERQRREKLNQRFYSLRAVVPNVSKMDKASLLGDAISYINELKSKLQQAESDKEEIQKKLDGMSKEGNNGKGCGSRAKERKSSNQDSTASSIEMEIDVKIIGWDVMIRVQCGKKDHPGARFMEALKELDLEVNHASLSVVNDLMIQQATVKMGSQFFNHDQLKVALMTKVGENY
UniProt O49687: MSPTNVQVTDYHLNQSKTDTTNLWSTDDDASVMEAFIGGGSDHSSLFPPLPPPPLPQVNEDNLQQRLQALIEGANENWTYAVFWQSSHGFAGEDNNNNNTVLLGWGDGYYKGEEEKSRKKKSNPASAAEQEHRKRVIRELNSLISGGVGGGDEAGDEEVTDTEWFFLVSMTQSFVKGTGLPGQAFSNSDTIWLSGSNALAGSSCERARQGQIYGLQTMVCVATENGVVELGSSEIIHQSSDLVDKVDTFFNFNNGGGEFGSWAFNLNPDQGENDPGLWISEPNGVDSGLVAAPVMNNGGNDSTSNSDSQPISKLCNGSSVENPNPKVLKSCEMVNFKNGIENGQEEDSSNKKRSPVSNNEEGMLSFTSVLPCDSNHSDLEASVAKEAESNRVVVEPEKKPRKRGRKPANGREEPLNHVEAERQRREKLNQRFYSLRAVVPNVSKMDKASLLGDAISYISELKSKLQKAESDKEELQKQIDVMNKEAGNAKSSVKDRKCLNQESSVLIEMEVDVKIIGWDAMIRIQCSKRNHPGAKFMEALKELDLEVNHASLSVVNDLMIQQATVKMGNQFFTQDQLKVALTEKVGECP
UniProt Q39204: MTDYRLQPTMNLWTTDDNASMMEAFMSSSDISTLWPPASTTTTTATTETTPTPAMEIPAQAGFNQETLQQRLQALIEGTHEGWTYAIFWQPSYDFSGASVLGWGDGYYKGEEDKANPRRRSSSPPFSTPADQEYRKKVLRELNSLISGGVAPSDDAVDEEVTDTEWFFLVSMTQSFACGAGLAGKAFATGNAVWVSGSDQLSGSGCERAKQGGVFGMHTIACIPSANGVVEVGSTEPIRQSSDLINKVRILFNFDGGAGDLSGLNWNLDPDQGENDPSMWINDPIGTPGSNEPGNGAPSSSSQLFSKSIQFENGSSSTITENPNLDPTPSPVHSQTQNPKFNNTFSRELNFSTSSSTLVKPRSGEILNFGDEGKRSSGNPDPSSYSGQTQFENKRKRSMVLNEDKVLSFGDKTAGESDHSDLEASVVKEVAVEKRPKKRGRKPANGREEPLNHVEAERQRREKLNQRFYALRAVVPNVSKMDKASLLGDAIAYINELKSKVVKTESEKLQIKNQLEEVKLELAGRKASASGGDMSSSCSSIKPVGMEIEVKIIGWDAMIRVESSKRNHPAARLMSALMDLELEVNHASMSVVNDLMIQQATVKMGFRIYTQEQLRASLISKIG
UniProt O23487: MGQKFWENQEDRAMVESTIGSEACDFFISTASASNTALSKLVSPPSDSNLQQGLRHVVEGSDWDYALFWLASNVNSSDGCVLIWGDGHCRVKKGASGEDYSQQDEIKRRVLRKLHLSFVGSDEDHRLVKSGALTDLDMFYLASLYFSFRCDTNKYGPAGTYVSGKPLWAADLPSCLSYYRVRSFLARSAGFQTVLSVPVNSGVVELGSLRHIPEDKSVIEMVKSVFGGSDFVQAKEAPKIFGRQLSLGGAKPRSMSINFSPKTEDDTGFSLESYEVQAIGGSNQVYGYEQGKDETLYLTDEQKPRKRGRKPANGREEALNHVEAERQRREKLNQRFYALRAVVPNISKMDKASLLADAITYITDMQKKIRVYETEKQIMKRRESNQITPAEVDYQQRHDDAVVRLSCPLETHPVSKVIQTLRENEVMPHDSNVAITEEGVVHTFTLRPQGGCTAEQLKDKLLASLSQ
UniProt Q9ZPY8: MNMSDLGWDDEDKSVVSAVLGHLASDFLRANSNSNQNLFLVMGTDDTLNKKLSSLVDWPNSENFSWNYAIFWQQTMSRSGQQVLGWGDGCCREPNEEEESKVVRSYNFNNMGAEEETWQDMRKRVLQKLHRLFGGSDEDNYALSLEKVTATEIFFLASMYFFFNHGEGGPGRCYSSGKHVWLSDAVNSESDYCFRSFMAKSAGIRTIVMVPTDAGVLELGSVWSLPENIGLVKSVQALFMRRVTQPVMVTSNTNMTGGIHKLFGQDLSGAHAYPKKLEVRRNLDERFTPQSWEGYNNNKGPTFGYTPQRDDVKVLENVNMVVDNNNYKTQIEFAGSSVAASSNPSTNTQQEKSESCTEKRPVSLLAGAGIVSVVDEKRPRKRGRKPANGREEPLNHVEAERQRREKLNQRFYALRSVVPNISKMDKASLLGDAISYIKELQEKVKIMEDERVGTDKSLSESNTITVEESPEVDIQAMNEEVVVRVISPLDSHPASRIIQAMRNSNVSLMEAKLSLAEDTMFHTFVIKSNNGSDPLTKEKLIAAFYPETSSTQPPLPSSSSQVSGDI
UniProt Q9LNJ5: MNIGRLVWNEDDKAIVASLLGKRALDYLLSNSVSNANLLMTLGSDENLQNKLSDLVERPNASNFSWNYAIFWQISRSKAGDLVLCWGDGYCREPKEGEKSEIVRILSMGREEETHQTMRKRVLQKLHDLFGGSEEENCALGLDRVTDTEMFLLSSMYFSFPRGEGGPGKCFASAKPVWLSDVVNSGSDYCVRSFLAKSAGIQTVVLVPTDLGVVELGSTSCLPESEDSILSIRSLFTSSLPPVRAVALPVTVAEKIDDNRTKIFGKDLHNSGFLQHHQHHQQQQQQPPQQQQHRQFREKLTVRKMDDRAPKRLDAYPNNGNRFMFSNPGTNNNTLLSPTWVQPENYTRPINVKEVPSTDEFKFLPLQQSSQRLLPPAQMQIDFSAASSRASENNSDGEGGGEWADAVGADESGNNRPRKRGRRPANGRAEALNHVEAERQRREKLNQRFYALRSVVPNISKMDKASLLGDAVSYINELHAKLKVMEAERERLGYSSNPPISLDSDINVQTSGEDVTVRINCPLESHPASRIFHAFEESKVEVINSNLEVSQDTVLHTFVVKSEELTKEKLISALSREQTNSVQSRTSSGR

What was measured:
Assay in all cases: two-hybrid; LexA BD fusions (pLexA) and B42 AD fusions (pB42AD) in yeast EGY48; blue colour on 2% Gal/1% raffinose/SD/-Ura/-His/-Trp/-Leu/X-β-Gal medium; images after 3 days at 30°C
[1] = biological target: T1, GL3 (Arabidopsis thaliana) (UniProt Q9FN69)
T1 sequence: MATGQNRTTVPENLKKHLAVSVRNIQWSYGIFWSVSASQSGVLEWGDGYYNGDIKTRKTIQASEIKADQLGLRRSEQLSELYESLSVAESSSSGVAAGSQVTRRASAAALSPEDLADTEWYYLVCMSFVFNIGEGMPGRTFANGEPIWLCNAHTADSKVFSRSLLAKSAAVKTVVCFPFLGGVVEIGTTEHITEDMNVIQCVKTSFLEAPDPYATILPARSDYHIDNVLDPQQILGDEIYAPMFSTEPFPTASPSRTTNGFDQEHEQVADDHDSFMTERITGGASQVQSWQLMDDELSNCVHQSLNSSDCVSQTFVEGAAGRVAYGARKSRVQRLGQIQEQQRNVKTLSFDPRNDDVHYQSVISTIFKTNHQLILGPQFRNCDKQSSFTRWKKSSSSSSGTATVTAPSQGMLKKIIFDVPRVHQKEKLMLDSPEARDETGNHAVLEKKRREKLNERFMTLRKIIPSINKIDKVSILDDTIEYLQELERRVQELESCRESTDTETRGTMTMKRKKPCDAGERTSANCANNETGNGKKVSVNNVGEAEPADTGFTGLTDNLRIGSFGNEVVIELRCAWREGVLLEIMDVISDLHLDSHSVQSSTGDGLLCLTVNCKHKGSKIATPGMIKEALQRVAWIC

[2] = biological target: T2, MYB75 (Arabidopsis thaliana) (UniProt Q9FE25)
T2 sequence: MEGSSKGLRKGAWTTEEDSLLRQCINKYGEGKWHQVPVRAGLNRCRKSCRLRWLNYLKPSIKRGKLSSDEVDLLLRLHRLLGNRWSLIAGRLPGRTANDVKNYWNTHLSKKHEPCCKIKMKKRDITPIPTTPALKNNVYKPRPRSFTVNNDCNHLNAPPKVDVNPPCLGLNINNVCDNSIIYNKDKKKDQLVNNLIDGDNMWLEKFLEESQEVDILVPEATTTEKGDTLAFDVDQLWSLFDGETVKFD

[3] = biological target: T3, TTG1 (Arabidopsis thaliana) (UniProt Q9XGN1)
T3 sequence: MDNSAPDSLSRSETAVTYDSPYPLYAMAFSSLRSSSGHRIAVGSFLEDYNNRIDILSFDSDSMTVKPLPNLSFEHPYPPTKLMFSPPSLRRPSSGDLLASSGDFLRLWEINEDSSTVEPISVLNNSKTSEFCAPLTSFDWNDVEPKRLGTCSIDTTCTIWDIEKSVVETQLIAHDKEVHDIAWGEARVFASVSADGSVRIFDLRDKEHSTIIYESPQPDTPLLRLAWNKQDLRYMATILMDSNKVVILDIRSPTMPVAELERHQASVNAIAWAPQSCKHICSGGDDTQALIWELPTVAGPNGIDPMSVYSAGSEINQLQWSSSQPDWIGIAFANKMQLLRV

[4] = biological target: MYC3 (Arabidopsis thaliana) (UniProt Q9FIP9)
[5] = biological target: MYC4 (Arabidopsis thaliana) (UniProt O49687)
[6] = biological target: MYC2 (Arabidopsis thaliana) (UniProt Q39204)
[7] = biological target: T4, GL1 (Arabidopsis thaliana) (UniProt P27900)
T4 sequence: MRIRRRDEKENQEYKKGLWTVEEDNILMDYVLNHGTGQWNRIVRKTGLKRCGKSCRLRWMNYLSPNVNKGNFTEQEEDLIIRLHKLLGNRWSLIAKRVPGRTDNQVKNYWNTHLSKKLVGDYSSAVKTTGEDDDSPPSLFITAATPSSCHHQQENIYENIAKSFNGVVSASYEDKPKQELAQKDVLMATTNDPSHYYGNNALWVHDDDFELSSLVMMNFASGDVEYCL

[8] = biological target: T5, TT8 (Arabidopsis thaliana) (UniProt Q9FT81)
T5 sequence: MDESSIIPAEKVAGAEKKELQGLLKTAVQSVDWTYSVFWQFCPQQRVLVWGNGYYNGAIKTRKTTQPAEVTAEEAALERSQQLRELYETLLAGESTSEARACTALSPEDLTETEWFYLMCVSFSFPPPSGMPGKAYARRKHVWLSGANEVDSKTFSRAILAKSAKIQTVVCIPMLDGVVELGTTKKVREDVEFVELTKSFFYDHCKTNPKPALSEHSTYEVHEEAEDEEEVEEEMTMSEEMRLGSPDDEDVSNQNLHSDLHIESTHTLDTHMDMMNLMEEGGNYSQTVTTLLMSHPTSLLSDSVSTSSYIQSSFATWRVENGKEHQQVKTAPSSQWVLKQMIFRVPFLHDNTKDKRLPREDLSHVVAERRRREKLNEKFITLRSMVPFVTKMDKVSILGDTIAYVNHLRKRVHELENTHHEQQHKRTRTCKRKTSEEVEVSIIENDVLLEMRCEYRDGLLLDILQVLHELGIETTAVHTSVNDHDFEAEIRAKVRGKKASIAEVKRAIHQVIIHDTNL

Measured: binding

bHLH3 (from UniProt O23487 1-467)
no binding: [1] | [2] | [3] | [4] | [5] | [6] | [7] | [8]

bHLH17 (from UniProt Q9ZPY8 1-566)
no binding: [1] | [2] | [3] | [4] | [5] | [6] | [7] | [8]

bHLH13 (from UniProt Q9LNJ5 1-590)
no binding: [1] | [2] | [3] | [4] | [5] | [6] | [7] | [8]
